From US8563548B2, “Methylene furanone derivatives and use of said derivatives as a photoprotecting or antioxidant or depigmentation agent in cosmetic or dermatological compositions” (Pierre Fabre Dermo-Cosmetique, priority 2008, dated 2013)
For at least one compound, name, drawing or mass did not settle the structure. Some results were stated once for a whole list of compounds, not compound by compound.

Experiment: Antioxidant capacity by trapping the superoxide anion (photochemiluminescence with luminol)
Assay type: biochemical
Conditions: reference products; sample needed for activity equivalent to 1 μg Trolox
Experimental: The antioxidant capacity of 10 molecules was measured by trapping the superoxide anion: 5d, 9a, 5b, 5a, 5e, 4d, 5f, 5g, 5h, 5j.
The method consists in generating free radicals by a photochemical signal. Oxidation intensity is 1000 times higher than that obtained in normal conditions.
Thus, the superoxide radical (O2—) is generated by a photochemical reaction: L+hv(UV)+O2→L*O2→L^++O2—
Detection is done by chemiluminescence. It enables the evaluation of water-soluble and fat-soluble antioxidant molecules or extracts.
Part of the superoxide anions are quenched by antioxidants. The remaining free radicals are quantified by chemiluminescence. L^++O2^−→N2+AP*^2−→AP^2−+hv (luminescence)
The results are expressed respectively in equivalent quantity of vitamin C or Trolox (6-hydroxy-2,5,7,8-tetramethylchroman-2-carboxylic acid). Sensitivity is on the order of a nanomole.
The analysis of the results depends on two criteria: shape of the curve and numerical value given by the software.

With `C=CC1=C(C)/C(=C/c2[nH]c(Cc3[nH]c(/C=C4\NC(=O)C(C)=C4C=C)c(C)c3CCC(=O)O)c(CCC(=O)O)c2C)NC1=O` [Bilirubin, reference compound] as the compound, how does the “μg of sample for 1 μg of Trolox” value read?
Its value is 4.18 µg.

With `Cc1cc(C(C)(C)C)c(O)c(C(C)(C)C)c1` [Butylhydroxytoluene, reference compound] as the compound, how does the “μg of sample for 1 μg of Trolox” value read?
The value was 7.26 µg.

Experiment: UV absorption characteristics (photoprotecting capacity)
Assay type: physicochemical
Conditions: UV absorption spectrum
Excerpt: The methylene furanone derivatives of general formula (I) of the present invention were thus evaluated in order to determine their photoprotecting capacity by determination of their UV absorption characteristics: molar extinction coefficient ε, critical wavelength (λc) and UVA/UVB ratio.
By gathering all this information and by comparing the shape of the UV absorption spectra, these molecules can be classified in three categories: […]

Which “critical wavelength (λc)” value does the source give for `O=C1C=C(c2ccccc2)/C(=C/c2ccsc2)O1` [8b, 4-Phenyl-(Z)-5-(thiophene-3-ylmethylene)furan-2-(5H)-one] here?
The value was under 370 nm.

For `O=C1C=CC(=C(c2ccccc2)c2ccccc2)O1` [5a, 5-(Diphenylmethylene)furan-2(5H)-one], which “critical wavelength (λc)” value is on record?
Its value is over 370 nm.

For `COc1ccc(C(=C2C=CC(=O)O2)c2ccc(OC)c(OC)c2)cc1OC` [5d, 5-(bis(3,4-Dimethoxyphenyl)methylene)furan-2-(5H)-one], which “critical wavelength (λc)” value is on record?
Its value is over 370 nm.

Which “critical wavelength (λc)” value does the source give for `O=C1C=C/C(=C(/c2ccccc2)c2ccsc2)O1` [9b, (E)-5-(phenylthiophene-3-ylmethylene)furan-2-(5H)-one] here?
Its value is over 370 nm.

For `CC(C)(C)OC(=O)Nc1ccc(C(=C2C=CC(=O)O2)c2ccc(NC(=O)OC(C)(C)C)cc2)cc1` [5e], which “critical wavelength (λc)” value is on record?
The value was over 370 nm.

For `O=C1C=C(c2ccsc2)/C(=C/c2ccsc2)O1` [4b, (Z)-4-(3-Thiophene)-5-(3-thiophenylmethylene)furan-2(5H)one], which “critical wavelength (λc)” value is on record?
The value was over 370 nm.

Which “critical wavelength (λc)” value does the source give for `O=C1C=CC(=C(c2ccc3ccccc3c2)c2ccc3ccccc3c2)O1` [5c, 5-(Dinaphthalene-2-ylmethylene)furan-2-(5H)-one] here?
The value was under 370 nm.

For `O=C1C=C/C(=C(\c2ccccc2)c2ccsc2)O1` [9a, (Z)-5-(phenylthiophene-3-ylmethylene)furan-2-(5H)-one], which “critical wavelength (λc)” value is on record?
Its value is over 370 nm.

With `O=C1C=C(Br)/C(=C/c2ccccc2)O1` [6a, (Z)-4-Bromo-5-(phenylmethylene)furan-2-(5H)-one] as the compound, how does the “critical wavelength (λc)” value read?
Its value is under 370 nm.

For `O=C1C=CC(=C(c2ccsc2)c2ccsc2)O1` [5b, 5-(Dithiophene-3-ylmethylene)furan-2-(5H)-one], which “critical wavelength (λc)” value is on record?
The value was over 370 nm.

For `O=C1C=C(c2ccc3ccccc3c2)/C(=C/c2ccc3ccccc3c2)O1` [4c, (Z)-4-(2-naphthalene)-5-(2-naphthalenephenylmethylene)furan-2(5H)-one], which “critical wavelength (λc)” value is on record?
The value was over 370 nm.

Which “critical wavelength (λc)” value does the source give for `O=C1C=C/C(=C(/Br)c2ccccc2)O1` [7a, (Z)-5-(Bromophenylmethylene)furan-2-(5H)-one] here?
The value was under 370 nm.

Which “critical wavelength (λc)” value does the source give for `O=C1C=C/C(=C(/Br)c2ccsc2)O1` [7b, (Z)-5-(Bromothiophene-3-ylmethylene)furan-2-(5H) one] here?
The value was under 370 nm.

With `O=C1C=CC(=C(c2ccccc2F)c2ccccc2F)O1` [5f, 5-bis((2-fluorophenyl)methylene)furan-2-(5H)-one] as the compound, how does the “critical wavelength (λc)” value read?
Its value is under 370 nm.

Which “critical wavelength (λc)” value does the source give for `O=C1C=C(c2ccccc2F)/C(=C/c2ccccc2F)O1` [4f, (Z)-4-(2-Fluorophenyl)-(Z)-5-(2-fluorophenylmethylene)furan-2(5H)-one] here?
Its value is under 370 nm.

For `O=C1C=C(c2ccsc2)/C(=C/c2ccccc2)O1` [8a, (Z)-5-(Phenylmethylene)-4-(thiophene-3-yl)furan-2-(5H)-one], which “critical wavelength (λc)” value is on record?
The value was under 370 nm.

With `O=C1C=C(c2ccccc2)/C(=C/c2ccccc2)O1` [4a, (Z)-4-Phenyl-5-(phenylmethylene)furan-2(5H)-one] as the compound, how does the “critical wavelength (λc)” value read?
Its value is under 370 nm.

With `O=C1C=C(Br)/C(=C/c2ccsc2)O1` [6b, (Z)-4-Bromo-5-(thiophene-3-ylmethylene)furan-2-(5H)-one] as the compound, how does the “critical wavelength (λc)” value read?
Its value is over 370 nm.

Which “critical wavelength (λc)” value does the source give for `COc1ccc(/C=C2\OC(=O)C=C2c2ccc(OC)c(OC)c2)cc1OC` [4d] here?
Its value is over 370 nm.
